From US11178870B2 (priority 2017, dated 2021)

Legend:
Format in all cases: in vivo
Plasmopara viticola = test: Test Example G: Downy mildew on vine; conditions: for control value, Test G (downy mildew on vine): 250 ppm sprayed (2.5 ml/pot) before inoculation, assessed 7 to 10 days after inoculation; for Test G control value (downy mildew on vine): 250 ppm spray, investigated 7 to 10 days after inoculation; for Test G control value (downy mildew on vine) / Test G control value: 2.5 ml/pot; for Test G control value: Downy mildew on vine, 250 ppm sprayed, 7 to 10 days after inoculation
[1] = tested on: Blumeria graminis f. sp. hordei; test: Test Example D: Powdery mildew on barley; conditions: for control value, Test D (powdery mildew on barley): Table 7, Test D; for Test D control value (powdery mildew on barley): class of control value, Table 7; for Test D control value: Powdery mildew on barley
Alternaia brassicicola = test: Test Example C: Alternaria sooty spot on cabbage; conditions: for control value, Test C (Alternaria sooty spot on cabbage): Table 7, Test C; for Test C control value (Alternaria sooty spot on cabbage): class of control value, Table 7; for Test C control value: Alternaria sooty spot on cabbage
Puccinia recondita = test: Test Example E: Brown rust on wheat; conditions: for control value, Test E (brown rust on wheat): Table 7, Test E; for Test E control value (brown rust on wheat): class of control value, Table 7; for Test E control value: Brown rust on wheat
Botrytis cinerea = test: Test Example B: Gray mold on tomato; conditions: for control value, Test B (gray mold on tomato): Table 7, Test B; for Test B control value (gray mold on tomato): class of control value, Table 7; for Test B control value: Gray mold on tomato

## O=c1c(Br)cc(-n2cc(Cl)cn2)c(-c2ccc(F)cc2F)n1CC(F)F [Compound 214]
Plasmopara viticola
  control value, Test G (downy mildew on vine): H (H shows the control value more than 50%)
[1]
  control value, Test D (powdery mildew on barley): H (H shows the control value more than 50%)
Alternaia brassicicola
  control value, Test C (Alternaria sooty spot on cabbage): H (H shows the control value more than 50%)
Puccinia recondita
  control value, Test E (brown rust on wheat): H (H shows the control value more than 50%)
Botrytis cinerea
  control value, Test B (gray mold on tomato): L (L shows the control value of 50% or less)

## Cc1cnn(-c2cc(Br)c(=O)n(C)c2-c2c(F)cccc2F)c1Cl [Compound 189]
Plasmopara viticola
  control value, Test G (downy mildew on vine): L (L shows the control value of 50% or less)
[1]
  control value, Test D (powdery mildew on barley): H (H shows the control value more than 50%)
Alternaia brassicicola
  control value, Test C (Alternaria sooty spot on cabbage): H (H shows the control value more than 50%)
Puccinia recondita
  control value, Test E (brown rust on wheat): H (H shows the control value more than 50%)
Botrytis cinerea
  control value, Test B (gray mold on tomato): H (H shows the control value more than 50%)

## CCn1c(-c2ccc(OC)cc2Cl)c(-n2cc(F)cn2)cc(Br)c1=O [Compound 363]
Plasmopara viticola
  control value, Test G (downy mildew on vine): L (L shows the control value of 50% or less)
[1]
  control value, Test D (powdery mildew on barley): L (L shows the control value of 50% or less)
Alternaia brassicicola
  control value, Test C (Alternaria sooty spot on cabbage): H (H shows the control value more than 50%)
Puccinia recondita
  control value, Test E (brown rust on wheat): H (H shows the control value more than 50%)
Botrytis cinerea
  control value, Test B (gray mold on tomato): H (H shows the control value more than 50%)

## Cc1sc(Br)cc1-c1cc(Br)c(=O)n(CC(F)F)c1-c1c(F)cccc1F [Compound 494]
Plasmopara viticola
  Test G control value (downy mildew on vine): H (H shows the control value more than 50%)
[1]
  Test D control value (powdery mildew on barley): H (H shows the control value more than 50%)
Alternaia brassicicola
  Test C control value (Alternaria sooty spot on cabbage): H (H shows the control value more than 50%)
Puccinia recondita
  Test E control value (brown rust on wheat): H (H shows the control value more than 50%)
Botrytis cinerea
  Test B control value (gray mold on tomato): L (L shows the control value of 50% or less)

## CCn1c(-c2ccc(C#N)cc2F)c(-n2cc(Cl)cn2)cc(Br)c1=O [Compound 280]
Plasmopara viticola
  control value, Test G (downy mildew on vine): L (L shows the control value of 50% or less)
[1]
  control value, Test D (powdery mildew on barley): L (L shows the control value of 50% or less)
Alternaia brassicicola
  control value, Test C (Alternaria sooty spot on cabbage): H (H shows the control value more than 50%)
Puccinia recondita
  control value, Test E (brown rust on wheat): H (H shows the control value more than 50%)
Botrytis cinerea
  control value, Test B (gray mold on tomato): L (L shows the control value of 50% or less)

## CCn1c(-c2ccccc2Br)c(-n2cc(C)cn2)cc(Br)c1=O [Compound 269]
Plasmopara viticola
  control value, Test G (downy mildew on vine): L (L shows the control value of 50% or less)
[1]
  control value, Test D (powdery mildew on barley): H (H shows the control value more than 50%)
Alternaia brassicicola
  control value, Test C (Alternaria sooty spot on cabbage): H (H shows the control value more than 50%)
Puccinia recondita
  control value, Test E (brown rust on wheat): H (H shows the control value more than 50%)
Botrytis cinerea
  control value, Test B (gray mold on tomato): H (H shows the control value more than 50%)

## CCn1c(-c2ccccc2Cl)c(-n2cc(F)cn2)cc(Cl)c1=O [Compound 351]
Plasmopara viticola
  control value, Test G (downy mildew on vine): L (L shows the control value of 50% or less)
[1]
  control value, Test D (powdery mildew on barley): H (H shows the control value more than 50%)
Alternaia brassicicola
  control value, Test C (Alternaria sooty spot on cabbage): H (H shows the control value more than 50%)
Puccinia recondita
  control value, Test E (brown rust on wheat): H (H shows the control value more than 50%)
Botrytis cinerea
  control value, Test B (gray mold on tomato): H (H shows the control value more than 50%)

## CCn1c(-c2ccccc2Cl)c(-n2cc(C)cn2)cc(Br)c1=O [Compound 180]
Plasmopara viticola
  Test G control value: L (L shows the control value of 50% or less)
[1]
  Test D control value: H (H shows the control value more than 50%)
Alternaia brassicicola
  Test C control value: H (H shows the control value more than 50%)
Puccinia recondita
  Test E control value: H (H shows the control value more than 50%)
Botrytis cinerea
  Test B control value: H (H shows the control value more than 50%)

## CCn1c(-c2ccc(F)cc2Br)c(-n2cc(C)cn2)ccc1=O [Compound 330]
Plasmopara viticola
  control value, Test G (downy mildew on vine): L (L shows the control value of 50% or less)
[1]
  control value, Test D (powdery mildew on barley): H (H shows the control value more than 50%)
Alternaia brassicicola
  control value, Test C (Alternaria sooty spot on cabbage): H (H shows the control value more than 50%)
Puccinia recondita
  control value, Test E (brown rust on wheat): H (H shows the control value more than 50%)
Botrytis cinerea
  control value, Test B (gray mold on tomato): H (H shows the control value more than 50%)

## Cc1ccsc1-c1cc(Cl)c(=O)n(C)c1-c1c(F)cccc1F [Compound 498]
Plasmopara viticola
  Test G control value (downy mildew on vine): H (H shows the control value more than 50%)
[1]
  Test D control value (powdery mildew on barley): H (H shows the control value more than 50%)
Alternaia brassicicola
  Test C control value (Alternaria sooty spot on cabbage): H (H shows the control value more than 50%)
Puccinia recondita
  Test E control value (brown rust on wheat): H (H shows the control value more than 50%)
Botrytis cinerea
  Test B control value (gray mold on tomato): H (H shows the control value more than 50%)

## O=c1ccc(-c2cccnc2Cl)c(-c2c(F)cccc2F)n1CC(F)F [Compound 56]
Plasmopara viticola
  Test G control value: H (H shows the control value more than 50%)
[1]
  Test D control value: H (H shows the control value more than 50%)
Alternaia brassicicola
  Test C control value: H (H shows the control value more than 50%)
Puccinia recondita
  Test E control value: H (H shows the control value more than 50%)
Botrytis cinerea
  Test B control value: H (H shows the control value more than 50%)

## O=c1c(Br)cc(-c2cc(Br)sc2Cl)c(-c2c(F)cccc2F)n1CC(F)F [Compound 400]
Plasmopara viticola
  Test G control value (downy mildew on vine): L (L shows the control value of 50% or less)
[1]
  Test D control value (powdery mildew on barley): L (L shows the control value of 50% or less)
Alternaia brassicicola
  Test C control value (Alternaria sooty spot on cabbage): H (H shows the control value more than 50%)
Puccinia recondita
  Test E control value (brown rust on wheat): L (L shows the control value of 50% or less)
Botrytis cinerea
  Test B control value (gray mold on tomato): L (L shows the control value of 50% or less)

## Cn1c(-c2c(F)cccc2Cl)c(-n2cc(F)cn2)cc(Cl)c1=O [Compound 509]
Plasmopara viticola
  Test G control value (downy mildew on vine): H (H shows the control value more than 50%)
[1]
  Test D control value (powdery mildew on barley): H (H shows the control value more than 50%)
Alternaia brassicicola
  Test C control value (Alternaria sooty spot on cabbage): H (H shows the control value more than 50%)
Puccinia recondita
  Test E control value (brown rust on wheat): H (H shows the control value more than 50%)
Botrytis cinerea
  Test B control value (gray mold on tomato): H (H shows the control value more than 50%)

## O=c1ccc(-c2sccc2Cl)c(-c2c(F)cccc2F)n1CC(F)F [Compound 394]
Plasmopara viticola
  Test G control value (downy mildew on vine): H (H shows the control value more than 50%)
[1]
  Test D control value (powdery mildew on barley): H (H shows the control value more than 50%)
Alternaia brassicicola
  Test C control value (Alternaria sooty spot on cabbage): H (H shows the control value more than 50%)
Puccinia recondita
  Test E control value (brown rust on wheat): H (H shows the control value more than 50%)
Botrytis cinerea
  Test B control value (gray mold on tomato): H (H shows the control value more than 50%)

## CCn1c(-c2c(F)cc(F)cc2F)c(-n2nc(C)c(Br)c2C)cc(Br)c1=O [Compound 117]
Plasmopara viticola
  Test G control value: L (L shows the control value of 50% or less)
[1]
  Test D control value: L (L shows the control value of 50% or less)
Alternaia brassicicola
  Test C control value: H (H shows the control value more than 50%)
Puccinia recondita
  Test E control value: L (L shows the control value of 50% or less)
Botrytis cinerea
  Test B control value: L (L shows the control value of 50% or less)

## CCn1c(-c2ccccc2Br)c(-n2cc(C)cn2)ccc1=O [Compound 268]
Plasmopara viticola
  control value, Test G (downy mildew on vine): L (L shows the control value of 50% or less)
[1]
  control value, Test D (powdery mildew on barley): H (H shows the control value more than 50%)
Alternaia brassicicola
  control value, Test C (Alternaria sooty spot on cabbage): H (H shows the control value more than 50%)
Puccinia recondita
  control value, Test E (brown rust on wheat): H (H shows the control value more than 50%)
Botrytis cinerea
  control value, Test B (gray mold on tomato): L (L shows the control value of 50% or less)

## CCn1c(-c2c(F)cc(OC)cc2F)c(-n2cc(F)cn2)cc(Br)c1=O [Compound 315]
Plasmopara viticola
  control value, Test G (downy mildew on vine): L (L shows the control value of 50% or less)
[1]
  control value, Test D (powdery mildew on barley): H (H shows the control value more than 50%)
Alternaia brassicicola
  control value, Test C (Alternaria sooty spot on cabbage): H (H shows the control value more than 50%)
Puccinia recondita
  control value, Test E (brown rust on wheat): H (H shows the control value more than 50%)
Botrytis cinerea
  control value, Test B (gray mold on tomato): H (H shows the control value more than 50%)

## Cc1cnn(-c2ccc(=O)n(CC(F)F)c2-c2ccc(F)cc2Br)c1 [Compound 338]
Plasmopara viticola
  control value, Test G (downy mildew on vine): L (L shows the control value of 50% or less)
[1]
  control value, Test D (powdery mildew on barley): H (H shows the control value more than 50%)
Alternaia brassicicola
  control value, Test C (Alternaria sooty spot on cabbage): H (H shows the control value more than 50%)
Puccinia recondita
  control value, Test E (brown rust on wheat): H (H shows the control value more than 50%)
Botrytis cinerea
  control value, Test B (gray mold on tomato): H (H shows the control value more than 50%)

## CCn1c(-c2c(F)cc(F)cc2F)c(-n2ncc(C)c2Cl)cc(Cl)c1=O [Compound 83]
Plasmopara viticola
  Test G control value: L (L shows the control value of 50% or less)
[1]
  Test D control value: H (H shows the control value more than 50%)
Alternaia brassicicola
  Test C control value: H (H shows the control value more than 50%)
Puccinia recondita
  Test E control value: H (H shows the control value more than 50%)
Botrytis cinerea
  Test B control value: H (H shows the control value more than 50%)

## CCn1c(-c2c(F)cc(F)cc2F)c(-n2cc(Cl)c(C)n2)ccc1=O [Compound 141]
Plasmopara viticola
  Test G control value: L (L shows the control value of 50% or less)
[1]
  Test D control value: H (H shows the control value more than 50%)
Alternaia brassicicola
  Test C control value: H (H shows the control value more than 50%)
Puccinia recondita
  Test E control value: H (H shows the control value more than 50%)
Botrytis cinerea
  Test B control value: H (H shows the control value more than 50%)

## CCn1c(-c2c(F)cc(F)cc2F)c(-n2nc(C)c(Br)c2C)ccc1=O [Compound 76]
Plasmopara viticola
  Test G control value: L (L shows the control value of 50% or less)
[1]
  Test D control value: H (H shows the control value more than 50%)
Alternaia brassicicola
  Test C control value: H (H shows the control value more than 50%)
Puccinia recondita
  Test E control value: L (L shows the control value of 50% or less)
Botrytis cinerea
  Test B control value: H (H shows the control value more than 50%)
